In PubChem BioAssay AID1508623 (National Center for Advancing Translational Sciences (NCATS), 2021):
Screen size: about 48,000 compounds; about 450 (0.94%) were called active. About 19% were inconclusive and are not listed. The call rests on the fitted dose curve; in most records, active means well fitted inhibition curve with a large enough effect; inconclusive means small, poorly fitted or top-dose-only effect; inactive means no such curve, though single readings can be large or run the other way. The list shows a part of the results.

assay: Primary qHTS for Identification of Small Molecule Inhibitors of Huntingtin Promoter Activity; conditions: HEK293 HTT promoter firefly luciferase reporter (activity 0% = vehicle and -100% = no light), 24 h; series mostly up to 57.5 µM; activity change, negative = inhibition: at the top concentration; further: nearly all actives have a fitted effect of over 50% in size
How it was run: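 Firefly luciferase readout (Dual-Glo, 10 min RT) after 24 h, 37 °C compound exposure (final up to 57.5 uM) of HEK293 reporter cells cultured 24 h beforehand; PTC124 at 50 uM final as control inhibitor; activity scaled vehicle 0%, zero RLU -100%.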

Activity change, negative = inhibition, inactive:
CCn1cc2nc(SCC(=O)Nc3ccc(OC)cc3OC)n(Cc3ccc(Cl)cc3)c(=O)c2n1 -27.7%
Nc1cc(C(Cl)=C(Cl)Cl)c(S(N)(=O)=O)cc1S(N)(=O)=O
CCCCN(C)c1nnc(NC(=O)Nc2ccc(Br)c(C)c2)s1 -16.3%
CCOc1ccc(NC(=O)Cn2cc(C(=O)c3ccc(C)cc3)c(=O)c3cc4c(cc32)OCO4)cc1 -13.5%
CCc1ccc(CN(Cc2ccco2)C(=O)c2cc(-c3ccc(C)c(F)c3)on2)cc1 -12.7%
CCOCCc1nn2c(=O)cc(COC(=O)c3ccccc3NC(=O)c3ccc(C)cc3)nc2s1 0%
CCn1c2c(c(=O)n3ncc(C(=O)Nc4ccc(Cl)cc4C)c13)CN(Cc1ccc(OC)cc1)CC2 -21.5%
Brc1cccc(-c2nnn3c2nc(N2CCCCC2)c2ccccc23)c1 -0.549%
O=C(CNS(=O)(=O)c1cccs1)N1CCN(c2ccccc2F)CC1 28.5%
CCCn1c(=O)c2sccc2n2c(CCCC(=O)NC3CCCCC3)nnc12 -11.7%
Cc1ccccc1Cn1c(C)c(CNCCCc2ccccc2)c(C(=O)O)c1C -20.7%
COc1ccc(C2C=C(c3ccc(Cl)cc3)Nc3nc(NC(=O)CCC(=O)O)nn32)cc1 (configuration not stated) -4.36%
Cc1ccccc1Nc1c(-c2c[nH]c3ccccc23)nc2cccc(C)n12 22%
O=c1c2sc3ccccc3c2n(Cc2ccc(Cl)cc2)c(=O)n1Cc1ccco1 -1.19%
COc1ccc(-c2csc3nc(-c4ccc(C)cc4)oc(=O)c23)cc1OC 14.1%
COc1ccc(CCN(C)CCCC(C#N)(c2cc(OC)c(OC)c(OC)c2)C(C)C)cc1OC (configuration not stated) -10%
CCCOc1cccc(C(=O)N2CCCCC2CCN2CCCCC2)c1 (configuration not stated) -4.72%
CCC(C)NC(=O)Cn1c(=O)c2cccn2c2ccc(F)cc21 (configuration not stated) 0.853%
O=C(Nc1ccc(F)cc1Cl)c1cnc(N2CCOCC2)c2ccccc12 6.58%
COc1cccc(CNC(=O)c2cc(=O)[nH]c3ccc(S(=O)(=O)N4CCCC4)cc23)c1 -14.3%
COc1ccc(CNC(=O)CC2Oc3ccc(C)cc3NC2=O)cc1 (configuration not stated) -1.33%
COc1cccc(CC(=O)Nc2ccc3nc(Nc4cccc(C(F)(F)F)c4)cc(C)c3c2)c1 -29.6%
COC(=O)c1cc2oc3ccccc3c2n1CC(=O)Nc1ccc(F)c(Cl)c1 -22.7%
COc1ccc(CCNc2nc(SCc3cccc(Cl)c3)nc3ccccc23)cc1OC -9.27%
Cc1cccc(Cn2c(CN3CCCC(C)C3)nc3c2c(=O)n(C)c(=O)n3C)c1 (configuration not stated) -2.71%
COCCCNC(=O)c1ccc(-n2c(-c3ccccc3)cc3c2CCCCC3)cc1 9.64%
Clc1ccc2nc(-c3cccs3)c(Nc3ccc4c(c3)OCCO4)n2c1 2.18%
CCOC(=O)c1cc(OC(=O)c2cc(OC)cc(OC)c2)n(-c2ccccc2)n1 -3.01%
CCc1nonc1NC(=O)c1oc2ccc(Cl)cc2c1C 25.3%
Cc1ccc(Cl)cc1NC(=O)Cn1c(SCC(=O)NCc2ccccc2)nc2ccccc21 -3.69%
CC1=C(C(=O)OC2CCCCCC2)C(c2ccc(Cl)cc2Cl)CC(=O)N1 (configuration not stated) -10.4%
COc1ccc(Cl)cc1C(=O)NCC(c1ccc(N(C)C)cc1)N1CCCC1 (configuration not stated) 1.7%
CN1CCN(c2c(F)cc3c(=O)c(C(=O)O)cn(CCF)c3c2F)CC1
O=C(Cn1c(-c2cccs2)cc2cc(Cl)ccc21)N1CCCCC1 -19.6%
C[N+](C)(C)CC[N+]1(C)Cc2c(Cl)c(Cl)c(Cl)c(Cl)c2C1 11.2%
Cc1ccc(C)c(NC(=O)Cn2c(=O)n(CCCS(=O)(=O)C3CCCCC3)c(=O)c3ccccc32)c1 -11.9%
Cc1ccc(-c2ccc(CCC(=O)O)n2-c2ccc(C)c(Cl)c2)cc1 35.8%
Fc1ccc(-c2nnn3c2nc(NCc2ccccc2)c2ccccc23)cc1 -8.01%
CCOc1cc(C(=O)Nc2ccc(-c3nnc4n3CCCCC4)cc2)cc(OCC)c1OCC 4.68%
Cn1c(=O)n(C)c2cc(N3CCOCC3)c(NS(=O)(=O)c3ccc(F)cc3)cc21 1.21%
Cc1ccc2nc(/C(C#N)=C/c3ccc(-c4ccc(C(=O)OC(C)C)cc4)o3)[nH]c2c1 -12.4%
Cc1ccc2c(c1)c1c(c(=O)n(-c3ccccc3)c(=O)n1CC(=O)c1ccc(Cl)cc1)n2C -14.9%
CCOc1ccc(NC(=O)CSc2nccn2C2CCCC2)cc1 -13.2%
COC(=O)c1cccc(CN2C(=O)SC(Nc3ccccc3C)C2=O)c1 (configuration not stated) -14.2%
COc1ccc(-n2c(=O)c3c4c(sc3n(CC(=O)C(C)(C)C)c2=O)CCCC4)c(OC)c1 -3.37%
O=C(Cn1nnc(-c2cccc(C(F)(F)F)c2)n1)NCc1ccc(F)cc1 -11.7%
CCc1ccc(CNC(=O)c2cc3cc4ccc(OC)cc4nc3o2)cc1 -1.12%
Cc1c(C(=O)Oc2ccc(Br)cc2)sc2ncn(Cc3ccccc3F)c(=O)c12 -7.52% [at 11.5 µM]
Cc1ccc(NC(=O)C(=O)NCC(c2ccc3c(c2)OCO3)N2CCN(C)CC2)cc1C (configuration not stated) -13.2%
CCN(CC)S(=O)(=O)c1ccc2c(c1)c(=O)c(C(=O)N1CCN(c3ccccc3OC)CC1)cn2C -2.94%
COc1cc(NC(=O)Nc2c[nH]c(=O)[nH]c2=O)cc(OC)c1OC 11.3%
CC(C)CCNC(=O)Cn1cc(S(=O)(=O)Cc2ccc(F)cc2)c2ccccc21 -28.3%
CCCCOc1ccc(S(=O)(=O)n2nc(C)c(S(=O)(=O)N3CCCCCC3)c2C)cc1 -5.36%
O=C(NCCCN1CCN(c2ccccc2F)CC1)c1sc2ncccc2c1-n1cccc1 -20.5%
CCCC(=O)OC1=C(C(C)=O)N(Cc2ccccc2)S(=O)(=O)c2ccccc21 -38.2%
O=C(CCS(=O)(=O)c1cc2c(cc1Cl)NC(=O)CO2)NCc1ccccc1 -5.38%
Cn1cc(S(=O)(=O)c2ccccc2)c(=O)c2cc(F)c(N3CCCC3)cc21 -2.82%
NNc1nncc2ccccc12
CC(=O)OCC(CCn1cnc2cnc(N)nc21)COC(C)=O
COc1ccc(CCNC(=O)c2cc3c(=O)n4ccccc4nc3n2C)cc1 6.95%
COc1ccc(NC(=O)Cn2cc(S(=O)(=O)c3ccccc3)c(=O)c3cc(C)ccc32)cc1Cl -5.03%
COc1cccc(N2CCN(C(=O)c3ccc4c(Cl)c5c(nc4c3)CCCC5)CC2)c1 0.557%
C[C@H](CN1CCCC1)C(=O)c1ccc(C(F)(F)F)cc1 -3.91%
CCC(=O)N1CCc2cc(Br)cc(S(=O)(=O)N3CCC(C(=O)Nc4cccc(C)c4)CC3)c21 -19.3%
CCC(Cn1nnc2ccccc2c1=O)NC(=O)Nc1cc(OC)cc(OC)c1 (configuration not stated) -4.66%
Cc1cc2c(cc3c(SCc4cccc(Cl)c4)nnc(C)n32)o1 9.64%
O=c1c2cccnc2n(Cc2ccc(Cl)cc2)c(=O)n1Cc1ccc(F)cc1 7.86%
CNC(=O)c1cccc(-n2c(C)nc3cccnc32)c1C 2.64%
CC(=O)c1ccc(NC(=O)CSc2nc3c(=O)n(C)c(=O)n(C)c3n2C)cc1 5.59%
CCCSc1nnc(NC(=O)Cc2coc3cc(C)ccc23)s1 -12.5%
CC(=O)Nc1ccc(S(=O)(=O)N2CCN(c3ccc(C)c(C)c3)CC2)cc1 -28.6%
Cc1cc(N2CCN(C)CC2)nc2ccc(NC(=O)c3ccccc3F)cc12 51.4%
Cc1cccc(NC(=O)Nc2ccc(C)c(C)c2)n1 67.8%
Cc1cc(OCC(=O)Nc2ccc(C(=O)OC3CCCCC3)cc2)ccc1Cl 2.73%
CNC(=O)C1CCC(Cn2c(=O)c3sccc3n(CC(=O)Nc3cc(C)cc(C)c3)c2=O)CC1 (configuration not stated) -11.6%
COc1cccc(NC(=O)Cn2nc(-c3ccncc3)ccc2=O)c1 -11% [at 11.5 µM]
O=C(c1c[nH]c2ccc(S(=O)(=O)Nc3ccccc3F)cc2c1=O)N1CCCCCC1 -1.47%
CCOc1ccc(NC(=O)C(=O)NCCc2sc(-c3ccc(C)cc3)nc2C)cc1 -7.38%
COc1ccc(OC)c(NC(=O)C2CCN(S(=O)(=O)c3c(C)noc3/C=C/c3ccc(C)cc3)CC2)c1 -5.84%
CC1CCCCN1CCCNC(=O)c1sc2ncccc2c1-n1cccc1 (configuration not stated) -9.61%
CCC(C)n1c(=N)c(C(=O)NCc2ccco2)cc2c(=O)n3cc(C)ccc3nc21 (configuration not stated) 14.6%
Cc1cccc(Cn2c(CN3CCC(C(=O)NCc4ccccc4Cl)CC3)cc3ccccc32)c1 11%
COc1ccc(Cn2c(CNS(=O)(=O)c3ccc(Cl)s3)nc3cccnc32)cc1 -16%
O=S(=O)(NCc1csc(-c2ccccc2)n1)c1ccccc1 -11%
Cc1ccc(C(=O)Nc2cc(-c3nc4cc(Cl)ccc4o3)ccc2C)c(C)c1 11.4%
CCCN1C(=O)c2[nH]nc(-c3ccc(OC)cc3)c2C1c1ccccn1 (configuration not stated) 0.513%
COC(=O)c1sc(N2C(=O)c3oc4cc(C)c(C)cc4c(=O)c3C2c2ccccc2F)nc1C (configuration not stated) -19.4%
C=CC(=O)Nc1cccc(Oc2nc(Nc3ccc(N4CCN(C)CC4)cc3OC)ncc2Cl)c1 -15.6%
CCOCCCNC(=O)C1CCN(c2nc3ccc(Cl)cc3[nH]2)CC1 14.4%
O=C(c1cnn(-c2ccc(F)cc2)c1-n1cccc1)N1CCN(c2cccc(Cl)c2)CC1 -27.1%
O=C(Cn1c(=O)n(Cc2ccco2)c(=O)c2ccccc21)Nc1cccc(F)c1 -14.3%
COc1ccc(NC(=O)Cn2c(=O)n(Cc3ccco3)c(=O)c3sc4ccccc4c32)cc1OC -14.3%
CC(=O)c1ccc(NC(=O)c2cnc(N3CCCC3)nc2C)cc1 -13.8%
CCOc1cc(C#N)c(NC(=O)c2ccc(OC)c(S(=O)(=O)N3CCCCC3)c2)cc1OCC -12.7%
Cc1ccc(-n2c(-c3ccc(Br)cc3)nc3c(cnn3-c3ccccc3)c2=O)cc1 -28.8%
CCc1ccccc1NC(=O)Cn1c(=O)n(-c2ccccc2)c(=O)c2oc3ccccc3c21 4.96%
Cc1c2cnn(-c3ccccc3)c(=O)c2c(C)n1CC(=O)Nc1ccccc1Br -12.1%
